The text below walks through data of paper PMC4336329 (PLoS ONE, 2015).

About 2,200 (0.71%) of roughly 310,000 compounds showed an effect of 50% or more. The effect is printed as a negative number. This is one part of the list.

Chain of human ether-à-go-go-related gene (hERG) potassium channel (Q12809 whole entry, looked up): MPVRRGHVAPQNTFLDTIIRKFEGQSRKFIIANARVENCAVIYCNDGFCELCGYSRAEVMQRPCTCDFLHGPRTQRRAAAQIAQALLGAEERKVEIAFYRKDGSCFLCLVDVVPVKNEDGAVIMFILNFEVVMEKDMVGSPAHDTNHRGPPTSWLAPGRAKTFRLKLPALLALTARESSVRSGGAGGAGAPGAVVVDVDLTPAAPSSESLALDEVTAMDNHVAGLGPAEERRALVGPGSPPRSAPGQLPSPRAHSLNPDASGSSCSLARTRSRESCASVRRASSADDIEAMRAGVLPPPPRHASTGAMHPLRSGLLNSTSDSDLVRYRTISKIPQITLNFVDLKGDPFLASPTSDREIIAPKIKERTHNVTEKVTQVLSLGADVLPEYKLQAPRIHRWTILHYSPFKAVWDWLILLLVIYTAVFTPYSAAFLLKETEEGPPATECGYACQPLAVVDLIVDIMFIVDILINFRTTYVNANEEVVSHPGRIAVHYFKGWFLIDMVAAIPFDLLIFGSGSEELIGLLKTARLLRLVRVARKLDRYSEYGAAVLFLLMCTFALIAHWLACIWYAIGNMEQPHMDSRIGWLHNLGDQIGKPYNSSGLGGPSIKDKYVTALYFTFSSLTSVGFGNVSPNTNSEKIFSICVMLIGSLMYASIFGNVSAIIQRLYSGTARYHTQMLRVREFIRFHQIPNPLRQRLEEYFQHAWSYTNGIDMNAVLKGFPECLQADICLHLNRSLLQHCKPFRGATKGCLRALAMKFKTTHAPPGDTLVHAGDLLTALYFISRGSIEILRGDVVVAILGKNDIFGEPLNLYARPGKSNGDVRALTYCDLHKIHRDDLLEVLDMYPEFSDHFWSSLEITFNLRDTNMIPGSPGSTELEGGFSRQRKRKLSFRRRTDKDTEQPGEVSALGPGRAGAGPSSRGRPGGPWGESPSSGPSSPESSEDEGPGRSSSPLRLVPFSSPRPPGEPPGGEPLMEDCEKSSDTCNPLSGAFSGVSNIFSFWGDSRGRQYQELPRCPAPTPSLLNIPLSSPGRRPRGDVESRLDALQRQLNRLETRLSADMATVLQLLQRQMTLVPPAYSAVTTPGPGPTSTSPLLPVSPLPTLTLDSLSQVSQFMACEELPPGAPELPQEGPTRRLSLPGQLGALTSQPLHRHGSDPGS

This assay has as its target human ether-à-go-go-related gene (hERG) potassium channel (human, UniProt Q12809). As to the kind of experiment: primary screen, population patch clamp on CHO cells stably expressing hERG.
`CC(C)(C)c1ccc(-c2nc3c(C#N)c(-c4ccc5c(c4)OCO5)ccn3n2)cc1`: the “hERG current change (%, negative = inhibition) at 1uM” value is listed as -2.37%.
On to `CCOc1ccc(C2Nc3cccc4cccc(c34)N2)cc1OC`, for which the “hERG current change (%, negative = inhibition) at 1uM” value was found to be 11.3%.
Regarding `COc1ccc(N/C=C/c2nc(SC)nnc2C)cc1`, the “hERG current change (%, negative = inhibition) at 1uM” value came out at 12.6%.
As for `Cc1ccc(N2CCN(C(=O)c3ccccc3NC(=O)C3CC=CCC3C(=O)O)CC2)cc1` (stereo not drawn), the “hERG current change (%, negative = inhibition) at 1uM” value was 4.08%.
The result for `Br.c1ccc(-c2cc3n(c2)CCc2ccccc2-3)cc1` reads 9.7%; that for `C/C(=N\OC(=O)NC(C)C)c1sc(-c2ccccc2)nc1C`, 12%; that for `O=[N+]([O-])c1ccc(Cl)c(S(=O)(=O)Nc2ccc(S(=O)(=O)N3CCOCC3)cc2)c1`, 17.8%.
The figure for `Nc1c(C(=O)c2ccc(Cl)cc2)sc2c1c(=O)[nH]c(=O)n2-c1ccccc1` is 7%; for `O=S(=O)(Nc1cc(S(=O)(=O)N2CCOCC2)ccc1NCC1CCCO1)c1ccccc1F` (stereo not drawn) it is -1.92%.
`Cc1cccc(CCNC(=O)C2CCN(S(=O)(=O)c3c(C)noc3C)CC2)c1`: the “hERG current change (%, negative = inhibition) at 1uM” value was 13.3%.
`N#C/C(=C\c1ccco1)C(=O)Nc1ccc(S(N)(=O)=O)cc1`: the “hERG current change (%, negative = inhibition) at 1uM” value worked out at 11.4%.
Take `Cc1ccc(CN2C(=O)c3ccccc3Sc3ccc(C(=O)NCCCN4CCOCC4)cc32)cc1`: the “hERG current change (%, negative = inhibition) at 1uM” value is 19.9%.
On to `C[C@]12CCC(=O)C[C@@H]1CC[C@@H]1[C@@H]2CC[C@]2(C)C=CC[C@@H]12`, for which the “hERG current change (%, negative = inhibition) at 1uM” value is 10.6%.
The figure for `Cc1nc2c(C)cccn2c(=O)c1NC(=O)COc1ccccc1` is 9.78%; for `COc1cc(Cl)c(CN2CCC(CCC(=O)NC3CC3)CC2)cc1OC` it is -15.9%; for `COC(=O)c1c(-c2ccccc2OC)sc2ccc(OC)cc12` it is 14.1%.
The result for `COc1cc(/C=C2/SC(=S)N(CC(=O)Nc3nc4ccccc4s3)C2=O)cc(OC)c1OC` reads -3.69%.
The figure for `O=C(C[n+]1ccc(/C=N/O)cc1)N(Cc1ccccc1)Cc1ccccc1.[Cl-]` is 3.8%.
For the molecule `CN1CC(=O)NC1=NC(=O)C12CC3CC(CC(C3)C1)C2`, the “hERG current change (%, negative = inhibition) at 1uM” value is 2.45%.
Turning to `CC1CCN(C(C(=O)Nc2ccc(C(C)C)cc2)c2ccc3c(c2)OCO3)CC1` (stereo not drawn), the “hERG current change (%, negative = inhibition) at 1uM” value is on record as 1.73%.
With `O=C(NCCc1ccccc1F)c1cccc2cccnc12`, the “hERG current change (%, negative = inhibition) at 1uM” value worked out at 16.3%.
With `Cc1ccn2nc(C(=O)OCC(=O)N(CC(C)C)C3CCS(=O)(=O)C3)nc2n1` (stereo not drawn), the “hERG current change (%, negative = inhibition) at 1uM” value is 11.2%.
The figure for `O=C(Cc1cccc2ccccc12)NC(=S)Nc1cccc(C(=O)O)c1` is 13.1%.
Consider `Cc1cc(=O)[nH]c(SCC(=O)NC2CCCCC2)n1`, for which the “hERG current change (%, negative = inhibition) at 1uM” value amounted to 11.1%.
For `CCCCCC(=O)NC(NC(=S)NC1CCS(=O)(=O)C1)C(Cl)(Cl)Cl` (stereo not drawn), the “hERG current change (%, negative = inhibition) at 1uM” value was determined as 0.663%.
`Cc1nnc(NC(=O)NCN2C(=O)C3C4C=CC(C4)C3C2=O)s1` (stereo not drawn): the “hERG current change (%, negative = inhibition) at 1uM” value worked out at 2.68%.
Regarding `COc1ccccc1C(=O)NCCCNC(=O)c1cccnc1`, the “hERG current change (%, negative = inhibition) at 1uM” value turned out to be 13.5%.
`CCc1ccc(NC(=O)C2CCCN(S(C)(=O)=O)C2)cc1` (stereo not drawn): the “hERG current change (%, negative = inhibition) at 1uM” value worked out at 24.3%.
Take `Cc1ccc(S(=O)(=O)N2CCC(C)CC2)cc1C(=O)NCc1ccccn1`: the “hERG current change (%, negative = inhibition) at 1uM” value was 5.18%.
Turning to `O=C(Nc1cccc(Cl)c1)Nc1nnc(CSCCOc2ccc(Cl)cc2)s1`, the “hERG current change (%, negative = inhibition) at 1uM” value was 6.88%.
Regarding `COCCNCC(=O)NC12CC3CC(CC(C3)C1)C2`, the “hERG current change (%, negative = inhibition) at 1uM” value was determined as 12.9%.
As for `COc1ccc(-n2nc(C(=O)NCC(=O)Nc3cccc(C)n3)c3ccccc3c2=O)cc1`, the “hERG current change (%, negative = inhibition) at 1uM” value is 12.1%.
The figure for `Nc1c(C(=O)NCCC2=CCCCC2)sc2ccc(S(=O)(=O)N3CCCCC3)cc12` is -23.5%; for `COc1ccc2c(C)cc(Sc3nnnn3-c3ccccc3)nc2c1` it is -0.967%; for `COc1ccc(CNC(=S)Nc2cc(OC)ccc2OC)cc1` it is -2.94%.
Consider `O=C(COC(=O)CC(c1ccccc1)c1ccccc1)NCc1ccccc1`, for which the “hERG current change (%, negative = inhibition) at 1uM” value is 17.8%.
Turning to `CCC(c1nnnn1Cc1ccco1)N(Cc1cc2cc(C)cc(C)c2[nH]c1=O)CC1CCCO1` (stereo not drawn), the “hERG current change (%, negative = inhibition) at 1uM” value was -1.71%.
In the case of `Cc1cccc(N2CCN(C3=NC(=O)C(Cc4ccccc4)S3)CC2)c1` (stereo not drawn), the “hERG current change (%, negative = inhibition) at 1uM” value stood at 6.84%.
For the molecule `Cc1ccc(N(C(=O)c2csnn2)C(C(=O)NC2CCCCC2)c2ccccn2)cc1` (stereo not drawn), the “hERG current change (%, negative = inhibition) at 1uM” value came out at 22.7%.
On to `CCN(CC(=O)Nc1ccccc1OC)C(=O)c1ccc2[nH]c3c(c2c1)CC(C)CC3` (stereo not drawn), for which the “hERG current change (%, negative = inhibition) at 1uM” value worked out at 8.12%.
`CC(C)C(NC(=O)c1ccc(Cl)cc1)C(=O)O` (stereo not drawn): the “hERG current change (%, negative = inhibition) at 1uM” value was found to be 10.2%.
As to `COc1ccc(N/C=C2\CCOC2=O)cc1`, the “hERG current change (%, negative = inhibition) at 1uM” value is -4.01%.
As to `O=C(O)c1ccccc1-c1ccccc1C(=O)Nc1ccc(OC(F)(F)F)cc1`, the “hERG current change (%, negative = inhibition) at 1uM” value is on record as 12.3%.
The figure for `CCCN1CCC(=O)N([C@H](CSc2ccccc2)c2ccccc2)CC1` is -82.2%; for `Cc1ccc(C2=NCCn3nc4cc(C(F)(F)F)ccc4c32)cc1` it is 1.36%; for `Cc1ccc(S(=O)(=O)N2CCC(C(=O)Nc3ncccc3O)CC2)cc1` it is -13.8%.
As to `O=C(O)C1(P(=O)(c2ccccc2)c2ccccc2)CCCC1`, the “hERG current change (%, negative = inhibition) at 1uM” value is given as 1.88%.
`CCCCN(C)CCNC(=O)c1ccc(Cn2c(=S)[nH]c3ccc(Br)cc3c2=O)cc1`: the “hERG current change (%, negative = inhibition) at 1uM” value turned out to be 5.55%.
The figure for `O=S(=O)(Nc1nc2ccccc2nc1NCCN1CCOCC1)c1cccc(Cl)c1` is 8.11%.
The result for `CCOC(=O)CNC(=O)c1ccc(C)cc1` reads 5.01%.
The figure for `COc1ccc(N(C(=O)c2snc(C(N)=O)c2N)C(C(=O)NC2CCCC2)c2ccco2)cc1` (stereo not drawn) is 3.98%; for `CC(C)(O)C#Cc1ccc(C(=O)N2CCN(c3ccccc3)CC2)cc1` it is 12.1%.
In the case of `S=C1NCN(Cc2ccco2)CN1c1cccc2ccccc12`, the “hERG current change (%, negative = inhibition) at 1uM” value is given as 12.5%.
Consider `COc1cc(C(C#N)N2CCOCC2)ccc1O` (stereo not drawn), for which the “hERG current change (%, negative = inhibition) at 1uM” value was determined as 12.2%.
Turning to `COc1ccc(S(=O)(=O)N2CCOCC2)cc1C(=O)Nc1ccc2c(c1)OCO2`, the “hERG current change (%, negative = inhibition) at 1uM” value turned out to be 13.2%.
Take `CCOc1ccc(NC(=O)CSc2nc(N3CCOCC3)nc(N3CCOCC3)n2)cc1`: the “hERG current change (%, negative = inhibition) at 1uM” value is 10.3%.
As for `O=C1c2ccccc2S(=O)(=O)N1CC(O)Cn1c2ccccc2c2ccccc21` (stereo not drawn), the “hERG current change (%, negative = inhibition) at 1uM” value is listed as 7.45%.
The result for `CN(C)c1ccc(/C=N/NC(=O)C(O)(c2ccccc2)c2ccccc2)o1` reads -5.86%.
In the case of `Cc1ccc(NC(=O)c2sc3nc(C)nc(N4CCN(c5ccccn5)CC4)c3c2C)c(C)c1`, the “hERG current change (%, negative = inhibition) at 1uM” value was -3.08%.
The result for `CCC(=O)NC1(C(F)(F)F)C(=O)Nc2c1c(=O)[nH]c(=O)n2CC(C)C` (stereo not drawn) reads 1.05%.
As for `CCOC(=O)C(Sc1ncc(C#N)c(N)n1)C(C)C` (stereo not drawn), the “hERG current change (%, negative = inhibition) at 1uM” value is 5.46%.
`CC(C)c1ccc(OCC(O)Cn2cnc3ccccc32)cc1` (stereo not drawn): the “hERG current change (%, negative = inhibition) at 1uM” value is reported as 8.82%.
The figure for `Cc1ccc(S(=O)(=O)NCCC(=O)NC(C)CCc2ccccc2)cc1` (stereo not drawn) is -10.7%.
Consider `O=C(OCc1c(F)cccc1Cl)c1cnccn1`, for which the “hERG current change (%, negative = inhibition) at 1uM” value is reported as 13%.
As for `O=C(Nc1ccc2ccccc2c1)c1cccc(F)c1`, the “hERG current change (%, negative = inhibition) at 1uM” value turned out to be 11.4%.
The result for `O=C(CSc1nc2c([nH]c3ccccc32)c(=O)n1-c1cccc(Cl)c1)N1CCOCC1` reads 15.2%.
Take `O=C(CNS(=O)(=O)c1ccc(Br)s1)N1CCCC1`: the “hERG current change (%, negative = inhibition) at 1uM” value worked out at 17.7%.
As for `O=S(=O)(c1cc(F)ccc1F)N1CCN(C2CCCCC2)CC1`, the “hERG current change (%, negative = inhibition) at 1uM” value is 4.35%.
The result for `CC(=O)c1ccc(NC(=S)N2CCN(CCN3C(=O)c4cccc5cccc(c45)C3=O)CC2)cc1` reads 14.6%; that for `Cc1ccc(S(=O)(=O)N2CCOCC2)cc1C(=O)N(Cc1nnc(-c2ccccc2Cl)o1)C1CC1`, 0.237%.
The figure for `COC(=O)c1ccc(NC(=O)CSc2nnnn2C2CCCCC2)cc1` is 12.5%; for `c1ccc(CNC2=NCCC2)nc1` it is 17.1%.
With `O=C(O)C(=O)O.c1ccc(CN2CCC(N3CCC(N4CCCCCC4)CC3)CC2)cc1`, the “hERG current change (%, negative = inhibition) at 1uM” value is 14.4%.
`Cc1onc(-c2c(F)cccc2Cl)c1C(=O)N[C@@H]1C(=O)N2C(C(=O)[O-])C(C)(C)S[C@H]12.[Na+]` (stereo partly drawn): the “hERG current change (%, negative = inhibition) at 1uM” value is reported as -1.91%.
Consider `O=[N+]([O-])c1cc(S(=O)(=O)N2CCCC2)ccc1N/N=C/c1cccs1`, for which the “hERG current change (%, negative = inhibition) at 1uM” value was 11.9%.
The result for `Cc1ccc(C)c(N2CN(CCC3=CCCCC3)CNC2=S)c1` reads -1.65%; that for `Cc1c(C(=O)N2CCCC2)sc(NC(=O)c2ccccc2)c1C#N`, 12.2%; that for `CC1(C)CN(c2ccc(Br)cc2Br)C1=O`, 16.2%.
Take `O=C(CSc1nnnn1Cc1ccccc1)Nc1ccccc1`: the “hERG current change (%, negative = inhibition) at 1uM” value is 11.7%.
As to `CCC1CSC(Nc2ccc(C(=O)/C=C/c3ccc(Oc4ccccc4)cc3)cc2)=N1` (stereo not drawn), the “hERG current change (%, negative = inhibition) at 1uM” value was determined as 8.77%.
The result for `N#Cc1c(Nc2ccccc2)c(/C=N/N=C/c2ccccc2)c[nH]c1=O` reads 9.64%; that for `C/C(COc1ccccc1)=N\NC(=O)c1nnn(-c2nonc2N)c1CSc1ccccc1`, 5.72%; that for `Oc1ccc(C=Nc2ccccc2-c2nc3ccccc3[nH]2)cc1`, 11.4%.
With `CC1=NNC(=O)C1Oc1ccccc1` (stereo not drawn), the “hERG current change (%, negative = inhibition) at 1uM” value is recorded as 0.965%.
`COC(=O)C(NC(=O)CCc1nnc2ccc(N3CCC(C)CC3)nn12)C(C)C` (stereo not drawn): the “hERG current change (%, negative = inhibition) at 1uM” value came to 13%.
The result for `O=C(Nc1ccccn1)c1ccco1` reads 13%; that for `COC(=O)c1sc(N2C(=O)C(=O)/C(=C(/O)c3ccc(C)cc3)C2c2ccco2)nc1C` (stereo not drawn), 9.86%.
